{"source": "the supplement of paper PMC8728848", "experiment_in_all_cases": "glycan array binding signal (z-score within array); higher = stronger binding", "settings_in_all_cases": "glycan notation: IUPAC condensed, linker removed", "key": {"Man(b1-4)GlcNAc": {"molecular_target": "Man(b1-4)GlcNAc", "how_it_was_run": "(§1)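 Arrays were curated from the Consortium for Functional Glycomics database, 3228 in total, and kept only where the protein sequence was available. Binding is expressed as a within-array Z-score. This score was averaged across arrays of the same protein sequence at different concentrations or buffers and across linkers, and negative values can be read as non-binding.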"}, "Neu5Ac(a2-3)Gal": {"molecular_target": "Neu5Ac(a2-3)Gal", "how_it_was_run": "as §1"}, "[1]": {"molecular_target": "Neu5Ac(a2-3)Gal(b1-3)GalNAc", "how_it_was_run": "as §1"}, "[2]": {"molecular_target": "Neu5Ac(a2-3)Gal(b1-3)GalNAc(b1-3)Gal(a1-4)Gal(b1-4)Glc", "how_it_was_run": "as §1"}, "[3]": {"molecular_target": "Neu5Ac(a2-3)Gal(b1-3)GalNAc(b1-3)Gal(b1-4)GlcNAc", "how_it_was_run": "as §1"}, "[4]": {"molecular_target": "Neu5Ac(a2-3)Gal(b1-3)GalNAc(b1-4)[Neu5Ac(a2-3)]Gal(b1-4)Glc", "how_it_was_run": "as §1"}, "[5]": {"molecular_target": "Neu5Ac(a2-3)Gal(b1-3)GalNAc6S", "how_it_was_run": "as §1"}, "[6]": {"molecular_target": "Neu5Ac(a2-3)Gal(b1-3)GlcNAc", "how_it_was_run": "as §1"}, "[7]": {"molecular_target": "Neu5Ac(a2-3)Gal(b1-3)GlcNAc(b1-3)Gal(b1-3)GlcNAc", "how_it_was_run": "as §1"}, "[8]": {"molecular_target": "Neu5Ac(a2-3)Gal(b1-3)GlcNAc6S", "how_it_was_run": "as §1"}, "[9]": {"molecular_target": "Neu5Ac(a2-3)Gal(b1-3)[Fuc(a1-4)]GlcNAc", "how_it_was_run": "as §1"}, "[10]": {"molecular_target": "Neu5Ac(a2-3)Gal(b1-3)[Fuc(a1-4)]GlcNAc(b1-3)Gal(b1-3)[Fuc(a1-4)]GlcNAc", "how_it_was_run": "as §1"}, "[11]": {"molecular_target": "Neu5Ac(a2-3)Gal(b1-3)[Fuc(a1-4)]GlcNAc(b1-3)Gal(b1-4)[Fuc(a1-3)]GlcNAc", "how_it_was_run": "as §1"}, "[12]": {"molecular_target": "Neu5Ac(a2-3)Gal(b1-3)[Neu5Ac(a2-3)Gal(b1-4)]GlcNAc", "how_it_was_run": "as §1"}, "[13]": {"molecular_target": "Neu5Ac(a2-3)Gal(b1-3)[Neu5Ac(a2-6)]GalNAc", "how_it_was_run": "as §1"}, "Neu5Ac(a2-3)Gal(b1-4)Glc": {"molecular_target": "Neu5Ac(a2-3)Gal(b1-4)Glc", "how_it_was_run": "as §1"}, "[14]": {"molecular_target": "Neu5Ac(a2-3)Gal(b1-4)GlcNAc", "how_it_was_run": "as §1"}, "[15]": {"molecular_target": "Neu5Ac(a2-3)Gal(b1-4)GlcNAc(b1-2)Man(a1-3)[GlcNAc(b1-2)Man(b1-4)GlcNAc(b1-2)Man(a1-6)]Man(b1-4)GlcNAc(b1-4)GlcNAc", "how_it_was_run": "as §1"}, "[16]": {"molecular_target": "Neu5Ac(a2-3)Gal(b1-4)GlcNAc(b1-2)Man(a1-3)[Neu5Ac(a2-6)Gal(b1-4)GlcNAc(b1-2)Man(a1-6)]Man(b1-4)GlcNAc(b1-4)GlcNAc", "how_it_was_run": "as §1"}, "[17]": {"molecular_target": "Neu5Ac(a2-3)Gal(b1-4)GlcNAc(b1-3)Gal(b1-3)GlcNAc", "how_it_was_run": "as §1"}, "[18]": {"molecular_target": "Neu5Ac(a2-3)Gal(b1-4)GlcNAc(b1-3)Gal(b1-4)GlcNAc", "how_it_was_run": "as §1"}, "[19]": {"molecular_target": "Neu5Ac(a2-3)Gal(b1-4)GlcNAc(b1-3)Gal(b1-4)GlcNAc(b1-3)Gal(b1-4)GlcNAc", "how_it_was_run": "as §1"}, "[20]": {"molecular_target": "Neu5Ac(a2-3)Gal(b1-4)GlcNAc(b1-3)Gal(b1-4)[Fuc(a1-3)]GlcNAc", "how_it_was_run": "as §1"}, "[21]": {"molecular_target": "Neu5Ac(a2-3)Gal(b1-4)GlcNAc(b1-3)GalNAc", "how_it_was_run": "as §1"}, "[22]": {"molecular_target": "Neu5Ac(a2-3)Gal(b1-4)GlcNAc(b1-6)[Gal(b1-3)]GalNAc", "how_it_was_run": "as §1"}, "[23]": {"molecular_target": "Neu5Ac(a2-3)Gal(b1-4)GlcNAc(b1-6)[Neu5Ac(a2-3)Gal(b1-3)]GalNAc", "how_it_was_run": "as §1"}, "[24]": {"molecular_target": "Neu5Ac(a2-3)Gal(b1-4)GlcNAc6S", "how_it_was_run": "as §1"}, "[25]": {"molecular_target": "Neu5Ac(a2-3)Gal(b1-4)[Fuc(a1-3)]GlcNAc", "how_it_was_run": "as §1"}, "[26]": {"molecular_target": "Neu5Ac(a2-3)Gal(b1-4)[Fuc(a1-3)]GlcNAc(b1-3)Gal", "how_it_was_run": "as §1"}, "[27]": {"molecular_target": "Neu5Ac(a2-3)Gal(b1-4)[Fuc(a1-3)]GlcNAc(b1-3)Gal(b1-4)GlcNAc", "how_it_was_run": "as §1"}, "[28]": {"molecular_target": "Neu5Ac(a2-3)Gal(b1-4)[Fuc(a1-3)]GlcNAc(b1-3)Gal(b1-4)[Fuc(a1-3)]GlcNAc(b1-3)Gal(b1-4)[Fuc(a1-3)]GlcNAc", "how_it_was_run": "as §1"}, "[29]": {"molecular_target": "Neu5Ac(a2-3)Gal(b1-4)[Fuc(a1-3)]GlcNAc(b1-6)[Gal(b1-3)]GalNAc", "how_it_was_run": "as §1"}, "[30]": {"molecular_target": "Neu5Ac(a2-3)Gal(b1-4)[Fuc(a1-3)]GlcNAc(b1-6)[Neu5Ac(a2-3)Gal(b1-3)]GalNAc", "how_it_was_run": "as §1"}, "[31]": {"molecular_target": "Neu5Ac(a2-3)Gal(b1-4)[Fuc(a1-3)]GlcNAc6S", "how_it_was_run": "as §1"}, "[32]": {"molecular_target": "Neu5Ac(a2-3)Gal6S(b1-4)GlcNAc", "how_it_was_run": "as §1"}, "[33]": {"molecular_target": "Neu5Ac(a2-3)Gal6S(b1-4)[Fuc(a1-3)]GlcNAc", "how_it_was_run": "as §1"}, "Neu5Ac(a2-3)GalNAc": {"molecular_target": "Neu5Ac(a2-3)GalNAc", "how_it_was_run": "as §1"}, "[34]": {"molecular_target": "Neu5Ac(a2-3)GalNAc(b1-4)GlcNAc", "how_it_was_run": "as §1"}, "[35]": {"molecular_target": "Neu5Ac(a2-3)[GalNAc(b1-4)]Gal(b1-4)Glc", "how_it_was_run": "as §1"}, "[36]": {"molecular_target": "Neu5Ac(a2-3)[GalNAc(b1-4)]Gal(b1-4)GlcNAc", "how_it_was_run": "as §1"}, "[37]": {"molecular_target": "Neu5Ac(a2-3)[Neu5Ac(a2-6)]GalNAc", "how_it_was_run": "as §1"}, "Neu5Ac(a2-6)Gal": {"molecular_target": "Neu5Ac(a2-6)Gal", "how_it_was_run": "as §1"}}, "note": "The other results are listed elsewhere or left out."}
{"binder": "DGL (Dioclea grandiflora), P08902 (protein) ADTIVAVELDSYPNTDIGDPNYPHIGIDIKSIRSKSTARWNMQTGKVGTVHISYNSVAKRLSAVVSYSGSSSTTVSYDVDLNNVLPEWVRVGLSATTGLYKETNTILSWSFTSKLKTNSIADENSLHFSFHKFSQNPKDLILQGDAFTDSDGNLELTKVSSSGDPQGNSVGRALFYAPVHIWESSAVVASFDATFTFLIKSPDREPADGITFFIANTDTSIPSGSGGRLLGLFPDAN", "values": [{"measurement": "glycan array binding signal (z-score)", "setting": "Man(b1-4)GlcNAc", "result": -0.186}, {"measurement": "glycan array binding signal (z-score)", "setting": "Neu5Ac(a2-3)Gal", "result": -0.18}, {"measurement": "glycan array binding signal (z-score)", "setting": "[1]", "result": -0.175}, {"measurement": "glycan array binding signal (z-score)", "setting": "[2]", "result": -0.171}, {"measurement": "glycan array binding signal (z-score)", "setting": "[3]", "result": -0.181}, {"measurement": "glycan array binding signal (z-score)", "setting": "[4]", "result": -0.172}, {"measurement": "glycan array binding signal (z-score)", "setting": "[5]", "result": -0.175}, {"measurement": "glycan array binding signal (z-score)", "setting": "[6]", "result": -0.173}, {"measurement": "glycan array binding signal (z-score)", "setting": "[7]", "result": -0.179}, {"measurement": "glycan array binding signal (z-score)", "setting": "[8]", "result": -0.179}, {"measurement": "glycan array binding signal (z-score)", "setting": "[9]", "result": -0.184}, {"measurement": "glycan array binding signal (z-score)", "setting": "[10]", "result": -0.164}, {"measurement": "glycan array binding signal (z-score)", "setting": "[11]", "result": -0.174}, {"measurement": "glycan array binding signal (z-score)", "setting": "[12]", "result": -0.175}, {"measurement": "glycan array binding signal (z-score)", "setting": "[13]", "result": -0.089}, {"measurement": "glycan array binding signal (z-score)", "setting": "Neu5Ac(a2-3)Gal(b1-4)Glc", "result": -0.172}, {"measurement": "glycan array binding signal (z-score)", "setting": "[14]", "result": -0.175}, {"measurement": "glycan array binding signal (z-score)", "setting": "[15]", "result": -0.162}, {"measurement": "glycan array binding signal (z-score)", "setting": "[16]", "result": -0.168}, {"measurement": "glycan array binding signal (z-score)", "setting": "[17]", "result": -0.171}, {"measurement": "glycan array binding signal (z-score)", "setting": "[18]", "result": -0.177}, {"measurement": "glycan array binding signal (z-score)", "setting": "[19]", "result": -0.183}, {"measurement": "glycan array binding signal (z-score)", "setting": "[20]", "result": -0.163}, {"measurement": "glycan array binding signal (z-score)", "setting": "[21]", "result": -0.18}, {"measurement": "glycan array binding signal (z-score)", "setting": "[22]", "result": -0.179}, {"measurement": "glycan array binding signal (z-score)", "setting": "[23]", "result": -0.169}, {"measurement": "glycan array binding signal (z-score)", "setting": "[24]", "result": -0.175}, {"measurement": "glycan array binding signal (z-score)", "setting": "[25]", "result": -0.174}, {"measurement": "glycan array binding signal (z-score)", "setting": "[26]", "result": -0.181}, {"measurement": "glycan array binding signal (z-score)", "setting": "[27]", "result": -0.169}, {"measurement": "glycan array binding signal (z-score)", "setting": "[28]", "result": -0.178}, {"measurement": "glycan array binding signal (z-score)", "setting": "[29]", "result": -0.164}, {"measurement": "glycan array binding signal (z-score)", "setting": "[30]", "result": -0.17}, {"measurement": "glycan array binding signal (z-score)", "setting": "[31]", "result": -0.18}, {"measurement": "glycan array binding signal (z-score)", "setting": "[32]", "result": -0.179}, {"measurement": "glycan array binding signal (z-score)", "setting": "[33]", "result": -0.178}, {"measurement": "glycan array binding signal (z-score)", "setting": "Neu5Ac(a2-3)GalNAc", "result": -0.171}, {"measurement": "glycan array binding signal (z-score)", "setting": "[34]", "result": -0.172}, {"measurement": "glycan array binding signal (z-score)", "setting": "[35]", "result": -0.175}, {"measurement": "glycan array binding signal (z-score)", "setting": "[36]", "result": -0.166}, {"measurement": "glycan array binding signal (z-score)", "setting": "[37]", "result": -0.166}, {"measurement": "glycan array binding signal (z-score)", "setting": "Neu5Ac(a2-6)Gal", "result": -0.171}]}
